B1: LINE1-mini (parent)
chain: GGCAGAGCUCAACACAGCGUGGCAAAGUGGCUGUGGCUAGACUGCC

Our source for the self-cleavage values is the RNAGym collection of RNA variant scans (doi:10.7554/elife.90254).

The source gives no read counts; variants with many changes may rest on few reads.

The variants in this data set derive from B1. Briefly: self-cleavage, relative activity (ratio to wild type); higher = more cleavage; in vitro, sequencing; the parent is a self-cleaving ribozyme.
In the case of GGCAGAGCUCAACAGGGCGUGGUAAAGUGGCCGUGGCUAGACUGAC, the self-cleavage was 0.03. Next, GGCAGAGCUCAACAGAGCGUGGCAAGGUGGCUUUGGCUAGACUGCU: 0.06.

For GGCAGAGCUCAACAGAGCGUGGCAAAGUGGCUGUGGCUUGAGUGCC, the self-cleavage worked out at 0.02.

On to GGCAGAGCUCAACAGAGCGUGGUAAAGUUGCUGUGGAUGGACUCCC, for which the self-cleavage was 0.01. Turning to GGCAGAGCUCAACAGAGUGUGACAAAGAGGCUGUGGCUAGUCUGCG, the self-cleavage stood at 0.03.

Consider GGCAGAGCUCAACAGAGCAUGGCAAAGUGGCUGCGGCUAGACUGCC, for which the self-cleavage was determined as 0.04. Next, GGCAGAGCUCAACAGAGCGUGGCACAGUGGCUGUGGCUAGACUGCG: 0.05; GGCAGAGCUCAACAGGGCUUGGCGAAGUGGCUGUGGCUAGACUGCC: 0.15.

Consider GGCAGAGCUCAACAGAGCCUGGCAAAGUGGCUGUUGCUAGACUGCC, for which the self-cleavage is 0.06. Take GGCAGAGCUCAACAAAGCGUGGCAAAGUGGCUGUGGCGGGACUGCC: the self-cleavage was 0.06.

For the variant GGCAGAGCUCAACAGACCGUAGCACAGUGGCUGUGGCUAGACUGCC, the self-cleavage was found to be 0.05. Regarding GGCAGAGCUCAACAGAGGGGGGCAAAGUGGCUGUGGCUAGACUGCC, the self-cleavage turned out to be 0.04. Turning to GGCAGAGCUCAACAGAUCGUAGCACUGUGGCUGUGGCUAGACUGCC, the self-cleavage turned out to be 0.09. As for GGCAGAGCUCAACAGAGCGUGGCAAAGUGGAUAUGGCUAGACUGAC, the self-cleavage amounted to 0. With GGCAGAGCUCAACAGAGCGUGGGAAAGUGACUGUGGCUAGACUGCC, the self-cleavage was determined as 0.02. With GGCAGAGCUCAACAGAGGUUUGCAAAUUGGCUGUGGCUACACUGCC, the self-cleavage is 0. Next, GGCAGAGCUCAACAGAGCAUGGCAAAGUAGAUGUGGCUAGACUGCC: 0.02; GGCAGAGCUCAACAGAGCAUGGCAAAGUGGCUCUGGCUAGACUGCC: 1.55. For the variant GGCAGAGCUCAACAGAGCGUAGCAAAGUAGCCGUGGCUAGACUGCC, the self-cleavage is 0.02. With GGCAGAGCUCAACAAAGCGUGGCAAAGAGGCUGGGGCUAGUCCGCC, the self-cleavage was found to be 0. To GGCAGAGCUCAACAGAACGUGGCAAAGUGGCUGUGGCUAGACUGCU belongs 0.16; to GGCAGAGCUCAACAAAGCGGGGAAAAGUGGAUGUGGCUAGACUGCC, 0; to GGCAGAGCUCAACAAAGCGUGGCAAAGUGGCUGAGGCUAGACUGCA, 0.01. To GGCAGAGCUCAACAGAGCGUGGCAUAGUGGCUGUGGCUACACUGGC belongs 0.01. For GGCAGAGCUCAACAGAGCGUGGUAAAGUGGCUGUGGCUAUACUGCC, the self-cleavage came out at 0.02. For GGCAGAGCUCAACAGAGUGUGGCAAAUUGGCUGUGGCUAGAGUGCC, the self-cleavage stood at 0.06. As to GGCAGAGCUCAACAAAGCGCGGCAAAGUGGCUGUGGCUAGACUUCC, the self-cleavage turned out to be 0.01. Turning to GGCAGAGCUCAACAGGGCGUCACAAAGUGGCUGUGGCUUGACUGCC, the self-cleavage came to 0.04. On to GGCAGAGCUCAACAGACCGUGGCAAAGUGGCCGUAGCUAGACUGCC, for which the self-cleavage came out at 0.03. With GGCAGAGCUCAACAAAGCGCGACAAAGUGGCUGUUGCUAGACGGCG, the self-cleavage came out at 0.01.

GGCAGAGCUCAACAGACCGUGGCAAAGUGGCUGUGGCUAGACUGGG: the self-cleavage was 0.01. Take GGCAGAGCUCAACAAAGCGCGGCGAAGUGGCUGUGGCUGGACUGCC: the self-cleavage was found to be 0.02. GGCAGAGCUCAACAGAGCGUGACAAUGUGGUUGUGGCUAGACUGCC: the self-cleavage was 0.02. In the case of GGCAGAGCUCAACAGAACCUGACAAAGUGGCUGUGGCUAGACUGAC, the self-cleavage stood at 0.02. To GGCAGAGCUCAACAGGGCGUGGCGAAGCGGCUGUGGCUAGACUGGC belongs 0.02; to GGCAGAGCUCAACAGAGCGUGGCAACGUGGCUGUUGCUAGACUGCC, 0.02.

Turning to GGCAGAGCUCAACAAAGCGUGGCAAAGUGGCGGUGACUAGACUGCC, the self-cleavage is 0.03. To GGCAGAGCUCAACAGAAAGUGCCAAAGUGGAUGUGGCUAGACUGCC belongs 0.04. To GGCAGAGCUCAACAGAGCGUGGCAUAGUGACUGUGGCUAGACUGCC belongs 0.02; to GGCAGAGCUCAACAGAGCGUAGCAAAGUGGCUGUGGUUAGACUGCC, 0.01; to GGCAGAGCUCAACAGAGCAUGGCAACGUGGCUCUGGCUAGACUGCC, 0.78. In the case of GGCAGAGCUCAACAGAGCGUGGCAAAGUGGAUGUGGCUAGAGUGCC, the self-cleavage stood at 0.01. As to GGCAGAGCUCAACAGAGCGUGGCAUAGUGGCUGUGGCUAGCCUGCC, the self-cleavage stood at 0.1. As for GGCAGAGCUCAACAGGGCGUGGCCAAGUGGCUGUGGCUGGACUGCC, the self-cleavage came to 0.03. GGCAGAGCUCAACAGAGCGUGGCAGAGGGGCUGUGGCUAGACUGCC: the self-cleavage stood at 0.04. Turning to GGCAGAGCUCAACAGAGAGCGGCAAAGUGGCUGUGGCUAGACUGAC, the self-cleavage turned out to be 0.02. Regarding GGCAGAGCUCAACAGAGUGUGGCAAAGUGCCUGUGGCUAGACUGCC, the self-cleavage was 0.06. On to GGCAGAGCUCAACAAAGCGUGGCAAAGAGGUUGUGGCUAGACUGCC, for which the self-cleavage worked out at 0.04.

On to GGCAGAGCUCAACAGAUCGAGGCAAAGUUGCUGUGGCUAUACUGCC, for which the self-cleavage came to 0.03. GGCAGAGCUCAACAGAGGGUGCCAAAGUGGCUGUGGCUAGACUGGC: the self-cleavage was determined as 0.02.

For the variant GGCAGAGCUCAACAGAACGUGGCAAAGUGGCUGUGGCUAGACUACC, the self-cleavage turned out to be 0.02. To GGCAGAGCUCAACAGAGCGUUGCAAAGUGGCUGUGGCUAGACUUCC belongs 0.02; to GGCAGAGCUCAACAGUGCGUGGCCAACUGGCUGUGGCUAGACUGUC, 0.01.

GGCAGAGCUCAACAAAGCGCGGCAAAGUGGCUGUGGCUAGACUGCG: the self-cleavage stood at 0.01.

On to GGCAGAGCUCAACAAAGCGGUGCAAAGUGUCUGUGACUAGACUGCA, for which the self-cleavage is 0.02. To GGCAGAGCUCAACAGAUCGUGGCAAAGUGGCUGUGGCUAGACAGCC belongs 0.15.
